Our source for the cAMP reporter score and surface expression score values is the GPR68 mutational scans of Howard et al. (2025).

B1: GPR68, Q15743 (parent)
chain: MGNITADNSSMSCTIDHTIHQTLAPVVYVTVLVVGFPANCLSLYFGYLQIKARNELGVYLCNLTVADLFYICSLPFWLQYVLQHDNWSHGDLSCQVCGILLYENIYISVGFLCCISVDRYLAVAHPFRFHQFRTLKAAVGVSVVIWAKELLTSIYFLMHEEVIEDENQHRVCFEHYPIQAWQRAINYYRFLVGFLFPICLLLASYQGILRAVRRSHGTQKSRKDQIQRLVLSTVVIFLACFLPYHVLLLVRSVWEASCDFAKGVFNAYHFSLLLTSFNCVADPVLYCFVSETTHRDLARLRGACLAFLTCSRTGRAREAYPLGAPEASGKSGAQGEEPELLTKLHPAFQTPNSPGSGGFPTGRLA

In data set [1] the parent is B1. Briefly: cAMP reporter score (Enrich2 score, wild type = 0); higher = more signal; HEK293T, FACS bins.
In data set [2] the parent is B1. Briefly: surface expression score (Enrich2 score, wild type = 0); higher = more signal; HEK293T, FACS bins.

The least precise scores are not listed. The source holds two more conditions with little spread; they are left out. Names with del lack the residues named; names with ins carry added residues between the positions named. For part of these data: How much ogerin was present is not stated here.

Consider R315_A316insG, for which the cAMP reporter score in data set [1] (pH 5.5) is -0.866; in data set [1] (pH 6), 0.017; in data set [1] (pH 6, modulator: ogerin), -1.02; in data set [1] (pH 6.5, modulator: ogerin), -0.179. Moreover, in data set [2], the surface expression score was 1.61.
With L308M, the cAMP reporter score in data set [1] (pH 5.5) was 0.472; in data set [1] (pH 6), 0.779; in data set [1] (pH 6, modulator: ogerin), -0.03; in data set [1] (pH 6.5, modulator: ogerin) it was 0.348. Further, the surface expression score in data set [2] stood at 0.029.
For L308G, the cAMP reporter score in data set [1] (pH 5.5) was found to be 1.52; in data set [1] (pH 6) it was 0.9; in data set [1] (pH 6, modulator: ogerin) it was 1.33; in data set [1] (pH 6.5, modulator: ogerin), 1.25. Also, the surface expression score in data set [2] is 0.458.
Consider L308I, for which the cAMP reporter score in data set [1] (pH 5.5) came out at 0.577; in data set [1] (pH 6), 0.357; in data set [1] (pH 6, modulator: ogerin), 1.37; in data set [1] (pH 6.5, modulator: ogerin), 1.05. Further, in data set [2], the surface expression score was found to be 0.389.
With L308H, the cAMP reporter score was 0.003 in data set [1] (pH 5.5); -0.501 in data set [1] (pH 6); 0.204 in data set [1] (pH 6, modulator: ogerin); 0.141 in data set [1] (pH 6.5, modulator: ogerin). Further, in data set [2], the surface expression score was -0.339.
For L308W, in that order: 0.341, -0.441, 0.68, -0.081 and -0.093.
For L308S, the cAMP reporter score in data set [1] (pH 5.5) is -0.248; in data set [1] (pH 6) it was 0.056; in data set [1] (pH 6, modulator: ogerin) it was -0.254; in data set [1] (pH 6.5, modulator: ogerin), 0.154. Also, the surface expression score in data set [2] is -0.391.
For the variant L308R, the cAMP reporter score in data set [1] (pH 5.5) was 0.34; in data set [1] (pH 6), 0.289; in data set [1] (pH 6, modulator: ogerin), 0.132; in data set [1] (pH 6.5, modulator: ogerin), -0.948. The surface expression score in data set [2] was -0.618.
On to L308K, for which the cAMP reporter score is 0.473 in data set [1] (pH 5.5); 0.919 in data set [1] (pH 6); 0.436 in data set [1] (pH 6, modulator: ogerin); -0.21 in data set [1] (pH 6.5, modulator: ogerin). Moreover, the surface expression score in data set [2] was 0.252.
For L308C, the cAMP reporter score in data set [1] (pH 5.5) is 0.019; in data set [1] (pH 6), -0.313; in data set [1] (pH 6, modulator: ogerin) it was 0.33; in data set [1] (pH 6.5, modulator: ogerin), 0.348. The surface expression score in data set [2] was -0.163.
For L308Y, in that order: -0.284, 0.03, 0.253, -0.384 and -0.958.
For the variant L308A, the cAMP reporter score is 0.88 in data set [1] (pH 5.5); -0.135 in data set [1] (pH 6); 1.05 in data set [1] (pH 6, modulator: ogerin); 0.05 in data set [1] (pH 6.5, modulator: ogerin). Also, in data set [2], the surface expression score is 0.201.
Take L308D: the cAMP reporter score in data set [1] (pH 5.5) was -0.086; in data set [1] (pH 6) it was -0.442; in data set [1] (pH 6, modulator: ogerin), -0.14; in data set [1] (pH 6.5, modulator: ogerin) it was -0.665. For the same variant, the surface expression score in data set [2] is -0.365.
In the same order, the values of L308T are 0.477, -0.598, -0.316, 0.507 and 0.177.
Consider L308E, for which the cAMP reporter score in data set [1] (pH 5.5) was -0.56; in data set [1] (pH 6, modulator: ogerin) it was -0.655; in data set [1] (pH 6.5, modulator: ogerin) it was -0.664.
For L308V, the cAMP reporter score in data set [1] (pH 5.5) is 0.418; in data set [1] (pH 6) it was 0.233; in data set [1] (pH 6, modulator: ogerin), 1.04; in data set [1] (pH 6.5, modulator: ogerin), 0.129. Further, in data set [2], the surface expression score turned out to be 0.582.
For L308F, the cAMP reporter score in data set [1] (pH 5.5) was 0.174; in data set [1] (pH 6), 0.95; in data set [1] (pH 6, modulator: ogerin), 0.551; in data set [1] (pH 6.5, modulator: ogerin), 1. Further, the surface expression score in data set [2] turned out to be 0.295.
In the same order, the values of L308Q are 0.104, 0.409, 0.249, -0.373 and -0.665.
L308N: the cAMP reporter score in data set [1] (pH 5.5) worked out at 0.973; in data set [1] (pH 6), 0.417; in data set [1] (pH 6, modulator: ogerin), 1.03; in data set [1] (pH 6.5, modulator: ogerin) it was 0.187. The surface expression score in data set [2] stood at 1.22.
For L308P, in that order: -0.489, 0.753, 0.032, -0.787 and 0.169.
As for L300Q, the cAMP reporter score is -0.537 in data set [1] (pH 5.5); -1.58 in data set [1] (pH 6); -1.54 in data set [1] (pH 6, modulator: ogerin); -1.07 in data set [1] (pH 6.5, modulator: ogerin). Moreover, the surface expression score in data set [2] is -0.094.
As to L300K, the cAMP reporter score in data set [1] (pH 5.5) was 1.05; in data set [1] (pH 6), 0.051; in data set [1] (pH 6, modulator: ogerin), 0.762; in data set [1] (pH 6.5, modulator: ogerin) it was -0.287. The surface expression score in data set [2] came to 0.448.
As for L300S, the cAMP reporter score in data set [1] (pH 5.5) is 0.392; in data set [1] (pH 6) it was -0.808; in data set [1] (pH 6, modulator: ogerin), -0.559; in data set [1] (pH 6.5, modulator: ogerin), -0.977. In addition, in data set [2], the surface expression score worked out at 0.801.
L300I: the cAMP reporter score is 0.365 in data set [1] (pH 5.5); 1.04 in data set [1] (pH 6); 0.144 in data set [1] (pH 6, modulator: ogerin); -0.511 in data set [1] (pH 6.5, modulator: ogerin). Also, the surface expression score in data set [2] worked out at 0.427.
In the case of L300W, the cAMP reporter score in data set [1] (pH 5.5) is 0.18; in data set [1] (pH 6) it was 0.754; in data set [1] (pH 6, modulator: ogerin), 0.515; in data set [1] (pH 6.5, modulator: ogerin), 1.49. Besides, the surface expression score in data set [2] is -0.024.
With L300D, the cAMP reporter score in data set [1] (pH 5.5) was -1.42; in data set [1] (pH 6), -1.15; in data set [1] (pH 6, modulator: ogerin), -1.09; in data set [1] (pH 6.5, modulator: ogerin) it was -1.34. In addition, in data set [2], the surface expression score amounted to 0.369.
On to L300P, for which the cAMP reporter score in data set [1] (pH 5.5) is -0.629; in data set [1] (pH 6), -0.509; in data set [1] (pH 6, modulator: ogerin), -0.687; in data set [1] (pH 6.5, modulator: ogerin), -0.147. In addition, in data set [2], the surface expression score worked out at 0.703.
For the variant L300R, the cAMP reporter score in data set [1] (pH 5.5) is 0.555; in data set [1] (pH 6, modulator: ogerin), -0.592.
Take L300H: the cAMP reporter score in data set [1] (pH 5.5) was -0.579; in data set [1] (pH 6), -0.846; in data set [1] (pH 6, modulator: ogerin), -0.447; in data set [1] (pH 6.5, modulator: ogerin), -1.39. Further, the surface expression score in data set [2] was -0.043.
In the same order, the values of L300E are -0.973, -0.37, -1.6, -0.649 and 0.604.
In the case of L300M, the cAMP reporter score in data set [1] (pH 5.5) is -0.305; in data set [1] (pH 6), -0.397; in data set [1] (pH 6, modulator: ogerin) it was -0.448; in data set [1] (pH 6.5, modulator: ogerin), 0.092. The surface expression score in data set [2] is -0.799.
